Results from patent publication US20200369776A1 (ADAGENE, published 2020).

Key:
[1] = molecular target: human CD137 mutant Hu_PW135AA on HEK293F cells (human, UniProt Q07011 18-255); experiment: FACS, HEK293F
[2] = molecular target: human CD137 mutant Hu_GT150AA on HEK293F cells (human, UniProt Q07011 18-255); experiment: FACS, HEK293F
[3] = molecular target: T1, full-length monkey CD137 on the cell surface (cynomolgus monkey, UniProt Q07011 24-179 (human entry)); experiment: flow cytometry, PMA + ionomycin activated T cells, MFI against log[Ab](nM)
T1 chain: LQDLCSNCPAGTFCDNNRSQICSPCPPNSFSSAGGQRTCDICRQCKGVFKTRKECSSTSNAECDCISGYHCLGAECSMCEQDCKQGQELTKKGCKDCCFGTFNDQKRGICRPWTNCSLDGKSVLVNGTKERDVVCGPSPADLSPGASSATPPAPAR

B1: AG10131 (antibody, human IgG4 S228P, kappa)
heavy: EVQLVESGGGLVQPGGSLRLSCAASGFSLSTGGVGVGWIRQAPGKGLEWLALIDWADDKYYSPSLKSRLTISRDNSKNTLYLQLNSLRAEDTAVYYCARGGSDTVIGDWFAYWGQGTLVTVSSASTKGPSVFPLAPCSRSTSESTAALGCLVKDYFPEPVTVSWNSGALTSGVHTFPAVLQSSGLYSLSSVVTVPSSSLGTKTYTCNVDHKPSNTKVDKRV[human IgG4 Fc with S228P (EU numbers) skipped]
light: DIQLTQSPSSLSASVGDRVTITCRASQSIGSYLAWYQQKPGKAPKLLIYDASNLETGVPSRFSGSGSGTDFTLTISSLQPEDFATYYCQQGYYLWTFGQGTKVEIKRTVAAPSVFIFPPSDEQLKSGTASVVCLLNNFYPREAKVQWKVDNALQSGNSQESVTEQDSKDSTYSLSSTLTLSKADYEKHKVYACEVTHQGLSSPVTKSFNRGEC
notes: IgG4 (S241P); also called AG10131-IgG4
With B1 the binding result [1] was “binds”, the binding result [2] was “binds” and the “EC50 (read off the curve)” value [3] was about 0.8 nM.
